Experimental data published in the supplement of paper PMC11417369.
This is one part of the list.

tested on: PF3D7_0420300 AP2 domain 1 (GST-tagged); assay: gcPBM binding intensity (ln(normalized median fluorescence intensity)); higher = stronger DNA binding
How it was run: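 An Agilent 4 × 180k array of primer-extended double-stranded 36-bp intergenic genomic probes, with negative controls, was incubated for 1 h with GST-tagged P. falciparum DNA-binding domains expressed in E. coli. Alexa488 anti-GST antibody detected bound protein, scanned at 488 nm. Binding intensity is the highest Masliner-normalised natural-log median intensity across replicate spots of either probe orientation.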

Sequence	gcPBM binding intensity (ln)
ATAAAAATATAAACATGTACATAAAAATCTATATAT [XGTACX_site405]	9.53
TTGCTTATATTTCTAAAATGTAAAAGACACAAAGGT [XGTACX_negctrl_site225]	9.1
TTCTAATATATGCATACACACAAATGTGAATATACA [CACACA_site2142]	9.39
AAAAAAAAAAAAAACACACACACACCCAAATATATA [CACACA_site1169]	10.1
ATATATTTATTTATATGTACATAATATTTTTCTCAG [XGTACX_site800]	9.27
TTTTTTATTACTTTGTGTACTTACACAGAACCTTAT [XGTACX_site6038]	9.25
AAAAATGCAATTTAATGTACACATAAGATGTTATTT [XGTACX_site6853]	9.16
ATATAGGTAATATTTTGTACATATTTTTGGGGTAGT [XGTACX_site5634]	9.56
AATTCTTTTTTCAACACACACACACCCGAAAATATA [CACACA_site3111]	10.1
ATATTTTTTGTATGTTGTACATAAAATATACATTTT [XGTACX_site6815]	9.06
AGATACTTTTTTAAAAGTACAAAAACTTTCGATATA [XGTACX_site959]	8.77
CATACATACATACATACACACATACATATATATATA [CACACA_site8388]	9.55
TCTAAAATAGTCCAGAGTACAAGAAACCATAATATA [XGTACX_site5237]	9.16
TATACATATTTAATATGTACATAATAATACTTATTC [XGTACX_site6939]	9.16
CCAAATTTATAAAGAACACACACATATATATATATA [CACACA_site7900]	9.44
AAGCATGTAGAATAATGTACTTGTGATTTTAATATA [XGTACX_site8565]	9.07
AAAAAAAAAATACAGGTGCAATAAGAAAAAAATGGT	9.99
TATATTAACAAAATGGTGCAATAATTTCTATATTAT [GTGCAC_site9857]	9.17
ATGTATAAACATATATGTACTTAAATAAAATGTTAA [XGTACX_site4044]	9.11
TAAAAAAACATATATTGTACGGAGATAATAATTTTT [XGTACX_site2946]	9.24
AAAAATAAAAAAATAATAAAATAAAAAATAAAAAAT [TGCATGCA_negctrl_site89]	9.23
TATACTGTCAATTCTACACACCATAGGGGGAGCATA [CACACA_site1875]	9.83
ATTAAAAGAACAATGTAAAAAAAGCAAATTAAAGAT [TGCATGCA_negctrl_site360]	9.55

Sequence	gcPBM binding intensity (ln)
CACCAATTCATATGCACACACATCTGCATATTATAT [CACACA_site1773]	9.74
TTATTAAATGAAAAATGTACATATAAATGATTATAT [XGTACX_site2788]	9.21
GAAATGTGTAGACACGCACACACAAAAAAATATATA [CACACA_site2912]	9.71
TCTAATAAAATAAATACATGCATACATACATACATA [TGCATGCA_site895]	9.19
AGGATTATATATTAATGTACCCGCGTTAATTTTTTT [XGTACX_site2878]	9.44
AAATAGAGAAATACAAGTACATACTAAACCTATCTA [XGTACX_site1334]	9.48
ACAAAGAAATATAATACACACAAGAATATATTGGAT [CACACA_site3901]	10
TAATATTTATCAAGTCGTACATAAAATGTATAATAA [XGTACX_site1103]	9.06
GTACAATAAGATGTAGCATGCCGTACCTTCACTACG [TGCATGCA_site235]	9.24
CAAATAACAAAATAATGTACATTTATACTTTTTTTT [XGTACX_site943]	9.19
TATACATATTTGTATTGTACATAAACTAAATCTTCA [XGTACX_site610]	9.04
ATACTGTATGAAAGCACACATACTTATTACTAACAT [CACACA_site4164]	9.38
TATCTCTACAAAATTTTATTCATTATTCATGTTATA [XGTACX_negctrl_site452]	9.29
GACCTACAAAAAGGCACACATATACTCATACATACA [CACACA_site5232]	9.46
ACATTTATTTTGAATGGTACACTATTATTATGAAAT [XGTACX_site4384]	9.1
GTGTAATGCTTATCGGTGCATATATATATATATATA	9.36
AAAAAAAAAAAAGGTACTACACACTATTATCAATAG [XGTACX_site161]	9.48
GATAATTTTTGCATATGTACTTAAAAATTAAAAATT [XGTACX_site7037]	8.95
TGAACAACTATTACTGCACACATTCTTACACTATAT [CACACA_site4533]	9.76
TTTTTTAAACGTTTAAATAATTAAATATAAATAAAT [CACACA_negctrl_site1567]	8.81
AAAAAAGAAACAATCGCATGCAATGTTAATGTACAT [TGCATGCA_site395]	9.64
TACGCAAAATAAAATCAAAATATAAGGAAAAAAAAA [TGCATGCA_negctrl_site578]	9.12
AGGTGTCATATATGCACACAAAAGTAACACGCACCT [CACACA_site472]	9.61

Sequence	gcPBM binding intensity (ln)
ATATTTTAATTATAAAGTACATAAAAATATATAAAC [XGTACX_site6705]	9.36
ATATAGTAAAGTTATACACACATGAATTTTCCCATA [CACACA_site7457]	9.48
TTTTTTATTGTGATACGTATATTATTTTATGATAAA [CACACA_negctrl_site1591]	9.22
TAAAAATGTAAACACACACACATAAATATATTTTAT [CACACA_site5397]	10
ATTAAAAAATCCATAGTGCACTACGATAGGTTCCGA [GTGCAC_site9463]	9.39
AAAGATGGAGTGATATGTACTGATATATTATTATAT [XGTACX_site6500]	9.34
AAGCATAAAGTATATAGTACATATATATATATATAT [XGTACX_site2945]	9.15
TTTGTTGTTGTGAAACGTACTCATAGGATGTTGTAT [XGTACX_site5716]	9.15
ATATTTTCAATGTTCACACATACACAAAAAAAAAAA [CACACA_site6077]	9.13
CTTTTGCCCAAAAAGGTACACACCACAATGTACATA [CACACA_site809]	9.23
GTTAATATACATAAACGTACAGAATTATTATGAGTT [XGTACX_site5185]	9.13
TAAATAATCGCATAATGTACATATAATTTTTTTTTT [XGTACX_site4880]	9.09
AAAATTTTTTTTATTTGTACACAATTCGATACATAA [XGTACX_site4804]	9.06
GCTTGGATATATTAATGTACTTATATATTATGTTGT [XGTACX_site3768]	9.66
CCAATTCAAATATGCACACAAATTTGAAAACGATTA [CACACA_site3607]	9.29
ATAAATAAATTTATACGTACACATAATATATATATA [XGTACX_site4634]	9.33
AAAAATAAAATGATGGTGCACATAAAGTATGGTTAC	9.86
ATTGAAAATTATTTACCTTCTTTGAAAGAACAAATG [CACACA_negctrl_site1736]	8.83
AATCCACAAAGACACACACACACATATATATATATA [CACACA_site1269]	10
TAATTAATATATTTTTGTACTTATATATTTGCGTAT [XGTACX_site340]	9.27
AAAATTCTTCGGGGGAGTACAAGGATATTCTACGTT [XGTACX_site3974]	9.53
TTATAATATATATGTGGTACTTATTTATTTATTTAT [XGTACX_site7572]	9.4
ATTTTTGATTTTAAAAGTACATAAGTATACTATTTA [XGTACX_site7162]	8.99

Sequence	gcPBM binding intensity (ln)
TTTTGTAATTTTGTATGTACACATTAAAGTAATATG [XGTACX_site2401]	9.13
GTAAAAATTTCATATTCACACACAAAAAAAAAAAAT [CACACA_site8457]	9.87
TTACTAAACTTATATGTACACACATATAACATTAAT [CACACA_site8710]	9.47
TAAAAAAAAAAAAAAAGTACCCATACTATATTACAT [XGTACX_site946]	9.25
AGTAGTCTGGAGAAGAGTACATAGTATCTGATAACC [XGTACX_site2044]	9.39
AAGAATTTTACAAAATGTACTTATGTTTTGTTTTAC [XGTACX_site5632]	9.25
ATCTTTCGTACATGTACACACAGAAAAAAAAAAAAA [CACACA_site2502]	9.35
GTTCCCATAAATAAATGTACATATTATATATATATA [XGTACX_site3242]	9.43
GTGTAATCATATAAGGGTACAAAAAATGTCTAACAA [XGTACX_site8122]	9.41
TTTCATTTCACAGACACACACACACCCTATATTTCC [CACACA_site3906]	10.2
ATATATATATATGTTAGTACTTATATTGAAATGGTA [XGTACX_site1406]	9.14
ATAAATAAAACAAAATGTACAAATATTCATATATTC [XGTACX_site1307]	9.41
ATTTTTTTTTTTTTTGAACACACATTATTAATTTTT [CACACA_site7990]	9.52
ATATATTTTATATAGTGTACTTTAATTTTTTTTTTT [XGTACX_site5550]	9.11
TTATTTACCTATTATAGTACATATAATTAATATAAT [XGTACX_site5724]	9.07
TACATATAAATAATAACACACACCTAGGTACATGGA [CACACA_site838]	9.78
TTTAAAAAAAATATGTGTACTTAATATTTTCATATA [XGTACX_site7421]	9.02
CATACACAGAAACACACACACATATATATATATATA [CACACA_site4519]	9.79
ATTCATATCTACTTCACACACATTTGATCATTCAAA [CACACA_site7207]	9.69
ATGAAACAGTAACATTGTACTTTTACAAAAAAATAA [XGTACX_site806]	9.09
